Measured values as given in the supplement of paper PMC10126150.
Values marked as one replicate rest on one cluster of the flow cell; about a third of the high ones do not repeat.

Tested on: ATP
Experiment: switch fluorescence ratio, 500 uM ATP over buffer (Cy3 cluster intensity, sum of 5 cycles each) (fold (ratio)); higher = stronger signal-on switching upon ATP binding; sequences stand for … in TCGTCGGCAGCGTCAGATGTGTATAAGAGACAGTTTTTTTTTTTTTTTTTTTTTTTTT…TC
Conditions: aptamer strand: ATP DNA aptamer (quencher-CACCTGGGGGAGTATTGCGGAGGAAGG + anchor), 100 nM annealed; ATP concentration: 500 uM; one replicate
In short: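 Cy3-labelled switching-strand clusters on a modified Illumina MiSeq flow-cell were annealed to 100 nM quencher-labelled ATP aptamer, imaged in selection buffer, then imaged after 15 min with 500 uM ATP at 22 °C. Five buffer/ATP cycles ran, with NaOH stripping and re-annealing between them. The fluorescence ratio is summed target-cycle over summed buffer-cycle Cy3 intensity per cluster, averaged per switch-domain sequence. Clusters outside 100-1000 RFU were excluded.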
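Note: ATP exposure 15 min at 22 °C before imaging.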

Sequence: GGATAATCTT
- switch fluorescence ratio: 0.984

Sequence: ACAACGTGGG
- switch fluorescence ratio: 0.994

Sequence: ATTTTATGGC
- switch fluorescence ratio: 0.986

Sequence: TAAAATTACG
- switch fluorescence ratio: 1.37

Sequence: GGCGCTGATG
- switch fluorescence ratio: 1.02

Sequence: CAAGGATTCA
- switch fluorescence ratio: 1.03

Sequence: CGCTCCTTTA
- switch fluorescence ratio: 1.02

Sequence: GCACATTTGG
- switch fluorescence ratio: 1

Sequence: GATATACACT
- switch fluorescence ratio: 1.12

Sequence: GTCAGGGCAA
- switch fluorescence ratio: 0.961

Sequence: TTTCTACGTC
- switch fluorescence ratio: 1.09

Sequence: TTTCATGGA
- switch fluorescence ratio: 1.01

Sequence: TGGGGGTTA
- switch fluorescence ratio: 0.995

Sequence: GGTGGTGTGT
- switch fluorescence ratio: 1.02

Sequence: CACATCTAT
- switch fluorescence ratio: 1.05

Sequence: TACGGAGTT
- switch fluorescence ratio: 1.02

Sequence: CGTTACTACT
- switch fluorescence ratio: 1.04

Sequence: CGTCGCGACC
- switch fluorescence ratio: 0.986

Sequence: CAGCATTACT
- switch fluorescence ratio: 6.66

Sequence: TATCAAACAA
- switch fluorescence ratio: 0.988

Sequence: GAACCGGATT
- switch fluorescence ratio: 1.15

Sequence: GAAGCATGAA
- switch fluorescence ratio: 1.08

Sequence: GCCGTGGCCA
- switch fluorescence ratio: 1.01

Sequence: GCGTATGCGG
- switch fluorescence ratio: 1.07

Sequence: CGGAGCCCCT
- switch fluorescence ratio: 1.03

Sequence: GATTGCGGCA
- switch fluorescence ratio: 0.972

Sequence: CTGGGGGAGA
- switch fluorescence ratio: 1.01

Sequence: GTGATGCGTC
- switch fluorescence ratio: 1

Sequence: CTTTTTCGAC
- switch fluorescence ratio: 0.993

Sequence: GCTAGGGTCT
- switch fluorescence ratio: 1.03

Sequence: AGGTGTATTT
- switch fluorescence ratio: 1.01

Sequence: TGCCTCATAA
- switch fluorescence ratio: 1

Sequence: GATGCGGTCG
- switch fluorescence ratio: 1.04

Sequence: CTAGAGCTCT
- switch fluorescence ratio: 1.02

Sequence: TCCAGAAAAG
- switch fluorescence ratio: 1.04

Sequence: CGTTTTTACC
- switch fluorescence ratio: 0.97

Sequence: TAATGTTCCG
- switch fluorescence ratio: 0.991

Sequence: GCCCATCTAC
- switch fluorescence ratio: 1.04

Sequence: CAGGTCGGTT
- switch fluorescence ratio: 0.944

Sequence: CATAAGGCTT
- switch fluorescence ratio: 0.948

Sequence: TAAGGGAGCC
- switch fluorescence ratio: 1.05

Sequence: GCGGCAGGGG
- switch fluorescence ratio: 0.973

Sequence: ACAGGATTTA
- switch fluorescence ratio: 1

Sequence: TAAGGGCTTA
- switch fluorescence ratio: 0.967

Sequence: TGATCGAACA
- switch fluorescence ratio: 1

Sequence: TACCGCGAAC
- switch fluorescence ratio: 2.47

Sequence: CATAATGGGG
- switch fluorescence ratio: 0.947

Sequence: AACGTTTGAG
- switch fluorescence ratio: 0.998

Sequence: CATTGAGTAT
- switch fluorescence ratio: 1.12

Sequence: GCGTGGGGCT
- switch fluorescence ratio: 1.01

Sequence: ATCGGGTATA
- switch fluorescence ratio: 0.981

Sequence: ATTCGGGCGC
- switch fluorescence ratio: 1.05

Sequence: GCCATTCGCG
- switch fluorescence ratio: 1.04

Sequence: ACGGGTGCTA
- switch fluorescence ratio: 1

Sequence: CCCCCAGTTT
- switch fluorescence ratio: 1.25

Sequence: ATGGGACCTA
- switch fluorescence ratio: 1.02

Sequence: TCACGCATAA
- switch fluorescence ratio: 2.13

Sequence: ACGGCCTTAC
- switch fluorescence ratio: 2.29

Sequence: CGTACTATGT
- switch fluorescence ratio: 1

Sequence: TAGAATATGG
- switch fluorescence ratio: 0.992

Sequence: TACTCGGAAA
- switch fluorescence ratio: 1.18

Sequence: TATAGATGAA
- switch fluorescence ratio: 1

Sequence: TAATTCAGA
- switch fluorescence ratio: 1.02

Sequence: GTGTTTTCTC
- switch fluorescence ratio: 1.02

Sequence: CAAATCGTGA
- switch fluorescence ratio: 1.01

Sequence: CGGGCAGCTT
- switch fluorescence ratio: 1.03

Sequence: CCGGCAGTTT
- switch fluorescence ratio: 1.13

Sequence: AGACGTAAGT
- switch fluorescence ratio: 1.04

Sequence: CGCACTGCCT
- switch fluorescence ratio: 1.11

Sequence: GGGATCGCAA
- switch fluorescence ratio: 1.25

Sequence: TAGCTGTGGA
- switch fluorescence ratio: 1.01

Sequence: GTCGAGTTGG
- switch fluorescence ratio: 0.995

Sequence: ACTCTCAGCT
- switch fluorescence ratio: 1.08

Sequence: ATGATGTAAA
- switch fluorescence ratio: 0.994

Sequence: ACTACCAGGG
- switch fluorescence ratio: 1.04

Sequence: TATCGTTTCG
- switch fluorescence ratio: 0.991

Sequence: GCGAGAGAGC
- switch fluorescence ratio: 1.01

Sequence: TATTGAGAGG
- switch fluorescence ratio: 1.04

Sequence: GATATCATCA
- switch fluorescence ratio: 0.975

Sequence: TTAGTAACCA
- switch fluorescence ratio: 1.01

Sequence: TGGGATCCTC
- switch fluorescence ratio: 1.07

Sequence: TCGGAACCTG
- switch fluorescence ratio: 0.883

Sequence: CATATGTCTT
- switch fluorescence ratio: 1

Sequence: CAGAGTGCAG
- switch fluorescence ratio: 0.939

Sequence: CGGAAATATT
- switch fluorescence ratio: 1.01

Sequence: CTTGACTACG
- switch fluorescence ratio: 1.06

Sequence: CGTCCTCGGG
- switch fluorescence ratio: 1.02

Sequence: TAGCAAATTT
- switch fluorescence ratio: 0.994

Sequence: GCCTTCATGT
- switch fluorescence ratio: 0.965

Sequence: CTGGACGGA
- switch fluorescence ratio: 0.958

Sequence: CTATCCTAAT
- switch fluorescence ratio: 0.974

Sequence: GAGTAGCTTA
- switch fluorescence ratio: 0.987

Sequence: ATTCTTGTGG
- switch fluorescence ratio: 1.01

Sequence: GTGAGAAATA
- switch fluorescence ratio: 0.987

Sequence: CATTTAAGCT
- switch fluorescence ratio: 0.998

Sequence: TGCTAGACAA
- switch fluorescence ratio: 1.02

Sequence: GAGCATATGG
- switch fluorescence ratio: 0.923

Sequence: AATCTCTCTG
- switch fluorescence ratio: 1.01

Sequence: CCATGAACAA
- switch fluorescence ratio: 1.01

Sequence: ACACTGCTGG
- switch fluorescence ratio: 1.05

Sequence: CTGCGAGTGT
- switch fluorescence ratio: 1.05

Sequence: ATTGACCGAA
- switch fluorescence ratio: 1.05

Sequence: TTCATTACAG
- switch fluorescence ratio: 0.984

Sequence: ACGATAAACA
- switch fluorescence ratio: 1.11

Sequence: AAGAGTAAGA
- switch fluorescence ratio: 1.01

Sequence: ATTCGTACC
- switch fluorescence ratio: 0.996

Sequence: TTGGTGATGG
- switch fluorescence ratio: 1.03

Sequence: CTCAGATGCA
- switch fluorescence ratio: 1.01

Sequence: GTCTCAGCAT
- switch fluorescence ratio: 1.5

Sequence: GCAGATTATT
- switch fluorescence ratio: 0.989

Sequence: GGTAAATTCG
- switch fluorescence ratio: 1.01

Sequence: AAAAGCATAG
- switch fluorescence ratio: 1.01

Sequence: TCCGCTAGG
- switch fluorescence ratio: 1.1

Sequence: GGCGTACTAA
- switch fluorescence ratio: 1.01

Sequence: CTTTATCCGA
- switch fluorescence ratio: 1.05

Sequence: TTCGTGACGT
- switch fluorescence ratio: 1.01

Sequence: GCTCAAGCTC
- switch fluorescence ratio: 1.06

Sequence: GCTCTAGGTT
- switch fluorescence ratio: 1

Sequence: ACCTTGAGC
- switch fluorescence ratio: 1.06

Sequence: AAGGCCAGAC
- switch fluorescence ratio: 1.06

Sequence: GGCTCAAAGA
- switch fluorescence ratio: 0.969

Sequence: CCTGTTGTTC
- switch fluorescence ratio: 1.05

Sequence: TTTGTAAGGA
- switch fluorescence ratio: 1.12

Sequence: TACGAGGGGT
- switch fluorescence ratio: 1.03

Sequence: GGCGGTCGGC
- switch fluorescence ratio: 0.946

Sequence: CCATACTAGC
- switch fluorescence ratio: 1.06

Sequence: TTCGAAGTAC
- switch fluorescence ratio: 2.23

Sequence: CGGAATTCGT
- switch fluorescence ratio: 1.03

Sequence: GCTGAGATT
- switch fluorescence ratio: 1.02

Sequence: ATCTTACCTT
- switch fluorescence ratio: 1.17

Sequence: ACAGGCGAGG
- switch fluorescence ratio: 1.05

Sequence: ACTATGCCCT
- switch fluorescence ratio: 1.02

Sequence: CTCGGATGAA
- switch fluorescence ratio: 0.986

Sequence: AAGCCACACT
- switch fluorescence ratio: 1.09

Sequence: ATATACTGTA
- switch fluorescence ratio: 1.16

Sequence: TGTAGTCGTA
- switch fluorescence ratio: 1.09

Sequence: TTGTCGTTAA
- switch fluorescence ratio: 0.98

Sequence: CAAGGCCGTG
- switch fluorescence ratio: 0.954

Sequence: AGAATTAGCA
- switch fluorescence ratio: 0.996

Sequence: TGACGTTGAA
- switch fluorescence ratio: 0.984

Sequence: AGCACTTCCC
- switch fluorescence ratio: 1.76

Sequence: ACAGCTCTGG
- switch fluorescence ratio: 0.979

Sequence: AAGCAGTATG
- switch fluorescence ratio: 0.999

Sequence: TAGCCCCGGG
- switch fluorescence ratio: 1.04

Sequence: GTTTGAAACC
- switch fluorescence ratio: 1.01

Sequence: CTTGGTAGTA
- switch fluorescence ratio: 0.989

Sequence: CCCGCTTCCG
- switch fluorescence ratio: 1.35

Sequence: AGTTGACGGC
- switch fluorescence ratio: 0.985

Sequence: CTTGGCGGAT
- switch fluorescence ratio: 0.952

Sequence: TCGGGGGAGA
- switch fluorescence ratio: 1

Sequence: CATATATGG
- switch fluorescence ratio: 0.99

Sequence: TCCATCTATT
- switch fluorescence ratio: 0.996

Sequence: AAACGTGGAA
- switch fluorescence ratio: 0.969

Sequence: ACGATGCGCC
- switch fluorescence ratio: 1.06

Sequence: ATCGTATAGC
- switch fluorescence ratio: 1.02

Sequence: TTAGTTTCCT
- switch fluorescence ratio: 1.04

Sequence: CAAGAAACGA
- switch fluorescence ratio: 0.984
